Out of some 420,000 compounds screened, about 64,000 (15%) were called active. Inconclusive means that the source gave no clear call. Such entries were picked first, then a sample of the others. Calls follow the shape of the dose curve; as a rule, active = well fitted inhibition curve with a large enough effect; inconclusive = small, poorly fitted or top-dose-only effect; inactive = flat fitted curve, though single readings scatter. No potency is given beside an inconclusive call; the fits are too rough.
test: qHTS for Inhibitors of human tyrosyl-DNA phosphodiesterase 1 (TDP1): qHTS in cells in absence of CPT; conditions: DT40 Tdp1-/- hTDP1 cells, no CPT, ATP luminescence, 48 h; activity change, negative = growth inhibition: at 46.2 µM (top of the series); also: nearly all actives have a fitted effect of over 55% in size
Procedure, shortened: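 A cellular qHTS used chicken DT40 cells lacking endogenous Tdp1 but carrying stably transfected human TDP1. Compounds were applied without camptothecin, and cell growth kinetics were judged by ATP-dependent luminescence after ≥48 hr.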
% is scaled to controls: 0 for no effect and ±100 for the full control effect; potency is read from the fitted curve at half-maximal effect; tags tell the direction and shape of the fitted curve.

**Q.** For `CCOC(=O)c1c(S(=O)(=O)N2CCC(C(=O)Nc3cccc(C#N)c3)CC2)c(C)n(C)c1C`, which “activity change, negative = growth inhibition” value is on record?
**A.** inactive: -20.2%

**Q.** With `Cn1nc(C(F)(F)F)c(C#N)c1N1CCN(c2ccccn2)CC1` as the compound, how does the Potency read?
**A.** inconclusive [inhibitor, single point]

**Q.** For `CCN(CC)S(=O)(=O)c1ccc(C(=O)NC2CC(=O)N(c3ccc4c(c3)OCCO4)C2)cc1` (centres undefined), which Potency is on record?
**A.** inconclusive [inhibitor, partial curve, poor fit]

**Q.** For `Cc1ccc(CC(=O)N2CCN(S(=O)(=O)c3ccccc3)CC2)cc1C`, which Potency is on record?
**A.** inconclusive [inhibitor, single point]

**Q.** With `CCOC(=O)N1CCN(C(=O)CSCc2ccc(C)cc2)CC1` as the compound, how does the “activity change, negative = growth inhibition” value read?
**A.** inactive: -22.3%

**Q.** With `N#Cc1c2c(c(Nc3ccc(F)cc3)n3c1nc1ccccc13)CCCC2` as the compound, how does the Potency read?
**A.** active: 18.4 µM

**Q.** For `O=C(CN1C(=O)COc2ccc(S(=O)(=O)Nc3ccccc3)cc21)NCc1ccccc1Cl`, which Potency is on record?
**A.** inconclusive [inhibitor, single point]

**Q.** For `O=C(CN1C(=O)C2C3C=CC(C3)C2C1=O)Nc1nc2ccccc2[nH]1` (centres undefined), which “activity change, negative = growth inhibition” value is on record?
**A.** inactive: -10.7%

**Q.** Which Potency does the source give for `O=C(CSc1nc2c(c(=O)[nH]1)CN(Cc1ccc(F)cc1)CC2)Nc1cccc(C(F)(F)F)c1` here?
**A.** inconclusive [inhibitor, single point]

**Q.** With `Cc1cc(NC(=O)CSc2nnc(NCc3ccco3)s2)no1` as the compound, how does the “activity change, negative = growth inhibition” value read?
**A.** inactive: 18.6%

**Q.** Which Potency does the source give for `O=C(NCCCN1CCOCC1)c1ccc(-n2nc(C(F)(F)F)cc2-c2cccs2)cc1` here?
**A.** active: 18.4 µM

**Q.** For `COc1ccc(NC(=O)Cn2c(=O)n(CCc3ccccc3)c(=O)c3sc4ccccc4c32)cc1`, which “activity change, negative = growth inhibition” value is on record?
**A.** inactive: -1.52%

**Q.** For `COC(=O)C1=C(C)NC(C)=C(C(=O)OC)C1c1ccc(-c2cccc(Cl)c2Cl)o1`, which Potency is on record?
**A.** inconclusive [inhibitor, single point]

**Q.** For `CCn1c(O)c(N=NC(=O)CNC(=O)c2cccnc2)c2ccccc21`, which activity change, negative = growth inhibition is on record?
**A.** inconclusive: -33.4% [inhibitor]

**Q.** Which Potency does the source give for `CCOC(=O)c1ccc(N2C(=O)c3[nH]nc(-c4ccccc4)c3C2c2cccs2)cc1` (centres undefined) here?
**A.** active: 20.6 µM

**Q.** For `Fc1ccc(CNC(=S)Nc2ccc(Cl)cc2Cl)cc1`, which Potency is on record?
**A.** inconclusive [inhibitor, single point]

**Q.** Which Potency does the source give for `CC1CC(C)(C)CC2(C1)NC(=S)N(c1ccccc1)N2` (centres undefined) here?
**A.** inconclusive [inhibitor, single point]

**Q.** Which Potency does the source give for `O=C(c1ccccc1Cc1ccccc1)N1CCN(S(=O)(=O)c2ccccc2F)CC1` here?
**A.** inconclusive [inhibitor, single point]

**Q.** For `COc1cc(C(=O)N(Cc2cccc(Cl)c2)C2CCS(=O)(=O)C2)cc(OC)c1OC` (centres undefined), which “activity change, negative = growth inhibition” value is on record?
**A.** inactive: -20.2%

Source: PubChem BioAssay AID686978 (National Center for Advancing Translational Sciences (NCATS), 2013)
